# Some of the results follow.
# B1: Pwp4 (Candida glabrata) (protein)
# chain: MGSSHHHHHHSSGLVPRGSHMASVGNPITVSNVCSFPKNWHRTAGFRALTARLGIGIQSDSYKELLNYPGTFQLTTQQSSTTKPNFQISGLVGNIYGLTIVPSYLLVELTGYFVPPVSGEYTFSLEGSDDAAIIFIANPSTFKCGHVEDWPTAYDNDVTVTESIHATRTIYMIEGVAYPIRIAYYNGLSLGKLQASFTDPEGVKRVDWNGYIWRYDSCDTCSYV
# Experiments:
# Experiment in all cases: glycan array binding signal (z-score within array); higher = stronger binding
# Conditions in all cases: glycan notation: IUPAC condensed, linker removed
# GlcNAc(b1-3)Gal(b1-4)Glc = molecular target: GlcNAc(b1-3)Gal(b1-4)Glc
# Method in brief: (§1)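 The binding signal is a Z-score computed within each array. Data were drawn from 3228 arrays in the Consortium for Functional Glycomics database, restricted to those with a known protein sequence. Scores were averaged over arrays of the same protein sequence at different concentrations or buffers, and over linkers, and negative values can be taken as non-binding.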
# [1] = molecular target: GlcNAc(b1-3)Gal(b1-4)GlcNAc
# Method in brief: as §1
# [2] = molecular target: GlcNAc(b1-3)Gal(b1-4)GlcNAc(b1-2)Man(a1-3)[GlcNAc(b1-3)Gal(b1-4)GlcNAc(b1-2)Man(a1-6)]Man(b1-4)GlcNAc(b1-4)GlcNAc
# Method in brief: as §1
# [3] = molecular target: GlcNAc(b1-3)Gal(b1-4)GlcNAc(b1-2)Man(a1-3)[GlcNAc(b1-3)Gal(b1-4)GlcNAc(b1-2)Man(a1-6)]Man(b1-4)GlcNAc(b1-4)[Fuc(a1-6)]GlcNAc
# Method in brief: as §1
# [4] = molecular target: GlcNAc(b1-3)Gal(b1-4)GlcNAc(b1-2)[GlcNAc(b1-3)Gal(b1-4)GlcNAc(b1-6)]Man(a1-6)[GlcNAc(b1-3)Gal(b1-4)GlcNAc(b1-2)Man(a1-3)]Man(b1-4)GlcNAc(b1-4)GlcNAc
# Method in brief: as §1
# [5] = molecular target: GlcNAc(b1-3)Gal(b1-4)GlcNAc(b1-3)Gal(b1-4)GlcNAc
# Method in brief: as §1
# [6] = molecular target: GlcNAc(b1-3)Gal(b1-4)GlcNAc(b1-3)Gal(b1-4)GlcNAc(b1-2)Man(a1-3)[GlcNAc(b1-3)Gal(b1-4)GlcNAc(b1-3)Gal(b1-4)GlcNAc(b1-2)Man(a1-6)]Man(b1-4)GlcNAc(b1-4)GlcNAc
# Method in brief: as §1
# [7] = molecular target: GlcNAc(b1-3)Gal(b1-4)GlcNAc(b1-3)Gal(b1-4)GlcNAc(b1-2)Man(a1-3)[GlcNAc(b1-3)Gal(b1-4)GlcNAc(b1-3)Gal(b1-4)GlcNAc(b1-2)Man(a1-6)]Man(b1-4)GlcNAc(b1-4)[Fuc(a1-6)]GlcNAc
# Method in brief: as §1
# [8] = molecular target: GlcNAc(b1-3)Gal(b1-4)GlcNAc(b1-3)Gal(b1-4)GlcNAc(b1-2)[GlcNAc(b1-3)Gal(b1-4)GlcNAc(b1-3)Gal(b1-4)GlcNAc(b1-6)]Man(a1-6)[GlcNAc(b1-3)Gal(b1-4)GlcNAc(b1-3)Gal(b1-4)GlcNAc(b1-2)Man(a1-3)]Man(b1-4)GlcNAc(b1-4)[Fuc(a1-6)]GlcNAc
# Method in brief: as §1
# [9] = molecular target: GlcNAc(b1-3)Gal(b1-4)GlcNAc(b1-3)Gal(b1-4)GlcNAc(b1-3)Gal(b1-4)GlcNAc(b1-2)Man(a1-3)[GlcNAc(b1-3)Gal(b1-4)GlcNAc(b1-3)Gal(b1-4)GlcNAc(b1-3)Gal(b1-4)GlcNAc(b1-2)Man(a1-6)]Man(b1-4)GlcNAc(b1-4)GlcNAc
# Method in brief: as §1
# [10] = molecular target: GlcNAc(b1-3)Gal(b1-4)GlcNAc(b1-3)Gal(b1-4)GlcNAc(b1-3)Gal(b1-4)GlcNAc(b1-2)Man(a1-3)[GlcNAc(b1-3)Gal(b1-4)GlcNAc(b1-3)Gal(b1-4)GlcNAc(b1-3)Gal(b1-4)GlcNAc(b1-2)Man(a1-6)]Man(b1-4)GlcNAc(b1-4)[Fuc(a1-6)]GlcNAc
# Method in brief: as §1
# [11] = molecular target: GlcNAc(b1-3)Gal(b1-4)GlcNAc(b1-3)Gal(b1-4)GlcNAc(b1-3)Gal(b1-4)GlcNAc(b1-2)[GlcNAc(b1-3)Gal(b1-4)GlcNAc(b1-3)Gal(b1-4)GlcNAc(b1-3)Gal(b1-4)GlcNAc(b1-6)]Man(a1-6)[GlcNAc(b1-3)Gal(b1-4)GlcNAc(b1-3)Gal(b1-4)GlcNAc(b1-3)Gal(b1-4)GlcNAc(b1-2)Man(a1-3)]Man(b1-4)GlcNAc(b1-4)[Fuc(a1-6)]GlcNAc
# Method in brief: as §1
# [12] = molecular target: GlcNAc(b1-3)Gal(b1-4)GlcNAc(b1-3)Gal(b1-4)GlcNAc(b1-3)Gal(b1-4)GlcNAc(b1-3)Gal(b1-4)GlcNAc(b1-2)Man(a1-3)[GlcNAc(b1-3)Gal(b1-4)GlcNAc(b1-3)Gal(b1-4)GlcNAc(b1-3)Gal(b1-4)GlcNAc(b1-3)Gal(b1-4)GlcNAc(b1-2)Man(a1-6)]Man(b1-4)GlcNAc(b1-4)GlcNAc
# Method in brief: as §1
# [13] = molecular target: GlcNAc(b1-3)Gal(b1-4)GlcNAc(b1-3)Gal(b1-4)GlcNAc(b1-3)Gal(b1-4)GlcNAc(b1-3)Gal(b1-4)GlcNAc(b1-2)Man(a1-3)[GlcNAc(b1-3)Gal(b1-4)GlcNAc(b1-3)Gal(b1-4)GlcNAc(b1-3)Gal(b1-4)GlcNAc(b1-3)Gal(b1-4)GlcNAc(b1-2)Man(a1-6)]Man(b1-4)GlcNAc(b1-4)[Fuc(a1-6)]GlcNAc
# Method in brief: as §1
# [14] = molecular target: GlcNAc(b1-3)Gal(b1-4)GlcNAc(b1-3)Gal(b1-4)GlcNAc(b1-3)Gal(b1-4)GlcNAc(b1-3)Gal(b1-4)GlcNAc(b1-2)[GlcNAc(b1-3)Gal(b1-4)GlcNAc(b1-3)Gal(b1-4)GlcNAc(b1-3)Gal(b1-4)GlcNAc(b1-3)Gal(b1-4)GlcNAc(b1-6)]Man(a1-6)[GlcNAc(b1-3)Gal(b1-4)GlcNAc(b1-3)Gal(b1-4)GlcNAc(b1-3)Gal(b1-4)GlcNAc(b1-3)Gal(b1-4)GlcNAc(b1-2)Man(a1-3)]Man(b1-4)GlcNAc(b1-4)[Fuc(a1-6)]GlcNAc
# Method in brief: as §1
# [15] = molecular target: GlcNAc(b1-3)Gal(b1-4)GlcNAc(b1-3)Gal(b1-4)GlcNAc(b1-3)GalNAc
# Method in brief: as §1
# [16] = molecular target: GlcNAc(b1-3)Gal(b1-4)GlcNAc(b1-3)GalNAc
# Method in brief: as §1
# [17] = molecular target: GlcNAc(b1-3)Gal(b1-4)GlcNAc(b1-3)[GlcNAc(b1-3)Gal(b1-4)GlcNAc(b1-3)]GalNAc
# Method in brief: as §1
# [18] = molecular target: GlcNAc(b1-3)Gal(b1-4)GlcNAc(b1-6)[Gal(b1-3)]GalNAc
# Method in brief: as §1
# [19] = molecular target: GlcNAc(b1-3)Gal(b1-4)GlcNAc(b1-6)[GlcNAc(b1-3)Gal(b1-3)]GalNAc
# Method in brief: as §1
# [20] = molecular target: GlcNAc(b1-3)Gal(b1-4)GlcNAc(b1-6)[GlcNAc(b1-3)]Gal(b1-4)GlcNAc
# Method in brief: as §1
# GlcNAc(b1-3)GalNAc = molecular target: GlcNAc(b1-3)GalNAc
# Method in brief: as §1
# GlcNAc(b1-3)Man = molecular target: GlcNAc(b1-3)Man
# Method in brief: as §1
# [21] = molecular target: GlcNAc(b1-3)[GlcNAc(b1-4)][GlcNAc(b1-6)]GlcNAc
# Method in brief: as §1
# [22] = molecular target: GlcNAc(b1-3)[GlcNAc(b1-6)]Gal(b1-4)GlcNAc
# Method in brief: as §1
# [23] = molecular target: GlcNAc(b1-3)[GlcNAc(b1-6)]GalNAc
# Method in brief: as §1
# [24] = molecular target: GlcNAc(b1-4)Gal(b1-4)GlcNAc
# Method in brief: as §1
# GlcNAc(b1-4)GlcNAc = molecular target: GlcNAc(b1-4)GlcNAc
# Method in brief: as §1
# [25] = molecular target: GlcNAc(b1-4)GlcNAc(b1-4)GlcNAc
# Method in brief: as §1
# [26] = molecular target: GlcNAc(b1-4)GlcNAc(b1-4)GlcNAc(b1-4)GlcNAc(b1-4)GlcNAc
# Method in brief: as §1
# [27] = molecular target: GlcNAc(b1-4)GlcNAc(b1-4)GlcNAc(b1-4)GlcNAc(b1-4)GlcNAc(b1-4)GlcNAc
# Method in brief: as §1
# [28] = molecular target: GlcNAc(b1-4)[GlcNAc(b1-6)]GalNAc
# Method in brief: as §1
# [29] = molecular target: GlcNAc(b1-6)Gal(b1-4)GlcNAc
# Method in brief: as §1
# GlcNAc(b1-6)GalNAc = molecular target: GlcNAc(b1-6)GalNAc
# Method in brief: as §1
# [30] = molecular target: GlcNAc6S(b1-3)Gal(b1-4)GlcNAc
# Method in brief: as §1
# Kdn(a2-3)Gal(b1-3)GalNAc = molecular target: Kdn(a2-3)Gal(b1-3)GalNAc
# Method in brief: as §1
# Kdn(a2-3)Gal(b1-3)GlcNAc = molecular target: Kdn(a2-3)Gal(b1-3)GlcNAc
# Method in brief: as §1
# Kdn(a2-3)Gal(b1-4)Glc = molecular target: Kdn(a2-3)Gal(b1-4)Glc
# Method in brief: as §1
# Kdn(a2-3)Gal(b1-4)GlcNAc = molecular target: Kdn(a2-3)Gal(b1-4)GlcNAc
# Method in brief: as §1
# [31] = molecular target: Kdn(a2-3)Gal(b1-4)[Fuc(a1-3)]GlcNAc
# Method in brief: as §1
# Kdn(a2-6)Gal(b1-4)GlcNAc = molecular target: Kdn(a2-6)Gal(b1-4)GlcNAc
# Method in brief: as §1
# [32] = molecular target: Man(a1-2)Man(a1-2)Man(a1-3)Man
# Method in brief: as §1
# [33] = molecular target: Man(a1-2)Man(a1-2)Man(a1-6)[Man(a1-3)]Man
# Method in brief: as §1
# Man(a1-2)Man(a1-3)Man = molecular target: Man(a1-2)Man(a1-3)Man
# Method in brief: as §1
# [34] = molecular target: Man(a1-2)Man(a1-3)[Man(a1-2)Man(a1-6)]Man
# Method in brief: as §1
binder,measurement,setting,value
B1,glycan array binding signal (z-score),GlcNAc(b1-3)Gal(b1-4)Glc,-0.768
same,glycan array binding signal (z-score),[1],-0.686
same,glycan array binding signal (z-score),[2],-0.17
same,glycan array binding signal (z-score),[3],1.17
same,glycan array binding signal (z-score),[4],1.21
same,glycan array binding signal (z-score),[5],0.125
same,glycan array binding signal (z-score),[6],2.84
same,glycan array binding signal (z-score),[7],1.26
same,glycan array binding signal (z-score),[8],4.62
same,glycan array binding signal (z-score),[9],1.16
same,glycan array binding signal (z-score),[10],0.082
same,glycan array binding signal (z-score),[11],5.36
same,glycan array binding signal (z-score),[12],-0.02
same,glycan array binding signal (z-score),[13],-0.153
same,glycan array binding signal (z-score),[14],4.3
same,glycan array binding signal (z-score),[15],-0.617
same,glycan array binding signal (z-score),[16],0.261
same,glycan array binding signal (z-score),[17],0.069
same,glycan array binding signal (z-score),[18],-0.456
same,glycan array binding signal (z-score),[19],-0.359
same,glycan array binding signal (z-score),[20],-0.353
same,glycan array binding signal (z-score),GlcNAc(b1-3)GalNAc,-0.484
same,glycan array binding signal (z-score),GlcNAc(b1-3)Man,-0.401
same,glycan array binding signal (z-score),[21],-0.323
same,glycan array binding signal (z-score),[22],0.059
same,glycan array binding signal (z-score),[23],-0.726
same,glycan array binding signal (z-score),[24],-0.455
same,glycan array binding signal (z-score),GlcNAc(b1-4)GlcNAc,-0.258
same,glycan array binding signal (z-score),[25],-0.431
same,glycan array binding signal (z-score),[26],-0.442
same,glycan array binding signal (z-score),[27],-0.361
same,glycan array binding signal (z-score),[28],-0.596
same,glycan array binding signal (z-score),[29],-0.407
same,glycan array binding signal (z-score),GlcNAc(b1-6)GalNAc,-0.456
same,glycan array binding signal (z-score),[30],-0.195
same,glycan array binding signal (z-score),Kdn(a2-3)Gal(b1-3)GalNAc,-0.337
same,glycan array binding signal (z-score),Kdn(a2-3)Gal(b1-3)GlcNAc,1.6
same,glycan array binding signal (z-score),Kdn(a2-3)Gal(b1-4)Glc,-0.259
same,glycan array binding signal (z-score),Kdn(a2-3)Gal(b1-4)GlcNAc,-0.444
same,glycan array binding signal (z-score),[31],-0.531
same,glycan array binding signal (z-score),Kdn(a2-6)Gal(b1-4)GlcNAc,0.025
same,glycan array binding signal (z-score),[32],0.3
same,glycan array binding signal (z-score),[33],-0.597
same,glycan array binding signal (z-score),Man(a1-2)Man(a1-3)Man,-0.626
same,glycan array binding signal (z-score),[34],-0.658

# Reference: the supplement of paper PMC8728848
